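Values below derive from 48-hour exposures of cells grown in 96-well plates, with endpoints linearly interpolated between the two concentrations bracketing the appropriate inhibition level. GI50 = concentration required for 50% inhibition of growth. At the TGI there is no net growth.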 Bounds are passed on as bounds.

GI50 and TGI data for two molecules are collected here from PubChem BioAssay (NCI).

In this assay the test system is NCI-H322M lung. Put plainly: DTP human tumour cell line panel, 48 h.

Consider `CNC(=O)c1cc(Oc2ccc3c(c2)sc2nc(-c4ccc(N(C)C)cc4)cn23)ccn1`, for which the GI50 was 1230 nM and the TGI was more than 50000 nM.

As to `CCC(=O)Nc1cc(Nc2cc(NC3CC3)n3ncc(C#N)c3n2)ccc1C`, the GI50 was 1630 nM and the TGI came to 22500 nM.
